Data as given in PubChem BioAssay AID1963576 (National Center for Advancing Translational Sciences (NCATS), 2024).
Among all 46,000 compounds or so, about 60 (0.1%) were called active. Roughly 3% stayed inconclusive and do not appear here. Calls follow the shape of the dose curve; as a rule, active = well fitted inhibition curve with a large enough effect; inconclusive = small, poorly fitted or top-dose-only effect; inactive = no such curve, though single readings can be large or run the other way. The list shows a part of the results.

Experiment: Primary qHTS assay for Inhibitors of ovarian cancer metastasis using an organotypic tumor microenvironment (TME) model. Also: nearly all actives have a fitted effect of over 65% in size.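 As to activity change, negative = inhibition: plate controls were DMSO wells for no effect and tomatine positive control wells for full effect.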
Conditions: SKOV3ip1-GFP adhesion/invasion on 3D omental model, fluorescence; series mostly up to 45.8 µM; activity change, negative = inhibition: at the top concentration
In short: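 Primary human omental fibroblast/mesothelial 3D culture pre-formed 48 h. SKOV3ip1-GFP cells added with compounds (0.36-46 umol/L), incubated 2 h RT/16 h 37 C, fixed; GFP cells quantified at 488/509 nm.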

Activity change, negative = inhibition, inactive:
Cc1c(C(=O)NCc2ccc(Cl)cc2)sc2nc3n(c(=O)c12)CCCC3 -7.76%, CCOc1ccc(CNC(=O)c2ccc(NC(=O)c3nsc4ccccc34)cc2)cc1 8.81%, CCS(=O)(=O)c1ccccc1C(=O)N(Cc1cccnc1)c1nc2cc(C)c(C)cc2s1 1.33%, CN(C(=O)CSc1nc2ccccc2n1CC(=O)NCc1ccc(F)cc1)c1ccc(F)cc1 4.53%, CCc1noc2nc(C)n(CC(=O)O)c(=O)c12 -0.659%, CCOC(=O)Cn1cc2c(c1-c1ccc(Cl)cc1)c(=O)n(C)c(=O)n2C 5.3%, CCN(CC)CCCNC(=O)c1c(C)oc2ncnc(N3CCOCC3)c12 -9.16%, CCCCN(Cc1ccccc1)S(=O)(=O)c1ccc2c(c1)CC(C)N2C(=O)CC (configuration not stated) -11.2%, Cc1ccc(CNc2ncnc3c2c(-c2ccccc2)cn3-c2cccc(Cl)c2)cc1 1.05%, COc1ccc(-c2nc3n(n2)C(c2ccccc2F)C(C(=O)Nc2cccnc2)=C(C)N3)cc1OC (configuration not stated) -4.51%, Cc1ccc(-c2noc(CN(C3CCCCC3)S(=O)(=O)c3ccc(Cl)cc3)n2)cc1 0.988%, c1ccc(C(c2cccs2)c2c[nH]c3ccccc23)cc1 (configuration not stated) -8.3%, Cc1cccc(-n2c(=O)c3c(c4cc(C)ccc4n3C)n(CC(=O)Nc3ccccc3C(F)(F)F)c2=O)c1 0.314%, COc1ccc(C2CC(=O)c3c([nH]c(C(=O)OC4CCC(C)CC4)c3C)C2)cc1OC (configuration not stated) 1.94%, Cc1ccccc1C(C(=O)NC1CCCCC1)N(C(=O)Cn1ccnc1C)c1cccc(F)c1 (configuration not stated) 3.57%, COCCCNC(=O)c1sc2ncccc2c1-n1cccc1 -13.5%, O[C@@H](CNC[C@H](O)[C@H]1CCc2cc(F)ccc2O1)[C@@H]1CCc2cc(F)ccc2O1 -6.09%, CCc1cccc2sc(N3CCN(C(=O)C4CC4)CC3)nc12 -4.76%, Cc1ccc2cccc(NC(=O)c3cccc4ccccc34)c2n1 -4.99%, COc1ccc(NCc2ccccc2-c2nnc(-c3ccccc3)o2)cc1Cl -12.5%, Cc1cc(C)cc(C(=O)N2CC(=O)Nc3ccc(C)cc3C2c2ccccc2)c1 (configuration not stated) -0.347%, CC(C)(C)OC(=O)N1CCC(c2c(C(=O)N3CCc4ccccc4C3)cnn2-c2ccc(Cl)cc2)CC1 -8.07%, CCS(=O)(=O)Nc1cc(-c2cn3ccc(C)cc3n2)ccc1C 1.67%, CCN1C(=O)c2cccc3c(S(=O)(=O)Nc4ccc(O)c(C(=O)O)c4)ccc1c23 15.5%, O=C(COc1ccc(Br)cc1Br)Nc1ccc(S(=O)(=O)Nc2ncccn2)cc1 8.01%, Cc1oc(-c2cccc(Cl)c2)nc1CN1CCC(C(=O)NC(C)C)CC1 -5.12%, Cc1cc(C)c(S(=O)(=O)Nc2ccc3oc(C)c(C(=O)OC(C)C)c3c2)cc1C -8.32%, Cc1ccc(CNC(=O)CCNS(=O)(=O)c2ccc3c(c2)oc(=O)n3C)cc1 -0.327%, Cc1ccc(Cl)cc1NC(=O)Cn1c(=O)cc(C)c2c(C)nn(C)c21 15.3%, CCOc1ccc(NC(=O)Cn2c(=O)n(CCc3ccccc3)c(=O)c3c4c(sc32)CCCC4)cc1 20.6%, Cc1ccc(NC(=O)CC2Oc3ccc(C)cc3NC2=O)c(C)c1 (configuration not stated) -10.6%, Cc1ccc(-n2nc3cc(C)c(NC(=O)c4ccc(-c5ccccc5)o4)cc3n2)cc1 -0.0812%, O=C(CCn1c(=O)c2sccc2n(Cc2ccc(F)cc2)c1=O)NCc1ccc2c(c1)OCO2 -1.61%, O=C(Cn1ncc2c3ccccc3n(Cc3ccccc3)c2c1=O)NCc1cccs1 -7.26%, CCOC(=O)C1=C(CN2CCN(c3ccc(Cl)cc3)CC2)NC(=O)NC1c1ccc(OC)cc1 (configuration not stated) -22.6%, Cc1ccc(CSc2c(C)cnc3c2c(=O)n(C)c(=O)n3C)cc1 -11.4%, CC(=O)c1ccc(NC(=O)Cn2nc(C(F)(F)F)c3c2CCC3)cc1 0.153%, CCN(CC)CCNC(=O)CCn1c(=O)c2cccn2c2cccnc21 -7.95%, CCCCNC(=O)CCC1N=C2c3ccccc3N=C(SCC(=O)NCCc3ccc(OC)c(OC)c3)N2C1=O (configuration not stated) -7.02%, CC1=C(C(=O)Nc2ccc(C)cc2C)C(c2ccccc2)n2nc(SCC(=O)c3ccc(C)cc3)nc2N1 (configuration not stated) -2.12%, CN1c2ccc(Cl)cc2-c2nc(SCC(=O)NCc3ccc(F)cc3)ncc2S1(=O)=O 3.29%, O=C(CSc1nc2ccsc2c(=O)n1Cc1ccc(F)cc1)NCc1ccc(Cl)cc1 9.92%, COc1ccc(NC(=O)Cn2c(=O)oc3ccccc32)cc1 23%, Oc1ccc(-c2nc(-c3ccc(F)cc3)c(-c3ccncc3)[nH]2)cc1 5.82%, CCc1ccccc1NC(=O)CCNS(=O)(=O)c1ccc2c(c1)CCCC(=O)N2 -9.46%, Cc1nn(C)c2c1c(C(F)(F)F)cc(=O)n2CC(=O)NCc1ccc(OC(C)C)cc1 -8.22%, CCC(C)c1ccc(OCC(=O)Nc2cccc3ccc(C)nc23)cc1 (configuration not stated) 3.88%, C[C@H](NC(=O)C(C#N)=Cc1cccc(Br)n1)c1ccccc1 -24%, CCN1CCN(c2ncc3c(n2)CCN(Cc2cc(Br)cs2)C3)CC1 7.01%, Cc1c(O)nc(SCC(=O)Nc2ccc(Cl)cc2Cl)n(-c2ccc(F)cc2)c1=O 0.801%, Cc1ccc(CNS(=O)(=O)c2ccc(N3CCCCS3(=O)=O)cc2)cc1 -3.17%, Cc1cn(C)c(CC(=O)NCc2cccc(Cl)c2)c1C(=O)O 0.204%, CC(C)(C)c1ccc(S(=O)(=O)N2CCC(Oc3ccc(-n4cnnn4)cc3)CC2)cc1 -0.914%, COc1cc(Cn2c(=O)oc3ccc(C)cc32)ccc1OCCC(C)C -8.36%, COc1ccc(CCNC(=O)Cc2c(C)c3cc4c(C(C)(C)C)coc4c(C)c3oc2=O)cc1OC 4.37%, COc1ccc(Nc2oc(-c3ccc(COc4cccc(C)c4)o3)nc2C#N)cc1 -49.9%, Cn1nnnc1SCCCNCc1ccc(Cl)cc1 -2.62%, CC(C)c1ccc(C2Sc3ccccc3NC3=C2C(=O)c2ccccc23)cc1 (configuration not stated) -2.28%, O=C(COc1ccccc1F)Nc1ccccc1C(=O)OCc1cc(=O)n2nc(C3CC3)sc2n1 -3.49%, CC1CCc2onc(C(=O)N3CCN(c4ccccc4)CC3)c2C1 (configuration not stated) -3.78%, COc1ccc(-c2nc3c(c(SCC(=O)Nc4cccc(O)c4)n2)Cc2c(CO)cnc(C)c2O3)cc1 -4.53%, O=C(NCc1ccc(Cl)cc1)c1cc2c(s1)-c1ccccc1SC2 -27.7%, Cc1ccc(C(=O)N(Cc2ccco2)Cc2sccc2C)cc1 -1.71%, Cc1nc(N2CCOCC2)c2c(C(=O)N3CCN(c4ccccc4F)CC3)c(C)oc2n1 1.02%, Cc1ccc(CN2COc3ccc4c(C)cc(=O)oc4c3C2)cc1 -31.6%, O=C(Nc1cc(Cl)ccc1Cl)c1cc(S(=O)(=O)NCCc2ccccc2)ccc1F -0.0054%, COc1ccc(CNC(=O)c2cnc3sc(N4CCC(C)CC4)nn3c2=O)c(OC)c1 -17.8%, Cc1ccc(N2C(=O)CC(c3ccccc3F)C3=C2COC3=O)cc1Cl (configuration not stated) 0.821%, COc1ccc(-c2c(C#N)c(SCC(=O)Nc3cccc(Cl)c3)nc(C)c2C(=O)Nc2ccccc2)cc1OC -0.601%, CCc1nnc2c(N3CCN(c4cccc(C)c4)C(C)C3)nc3ccccc3n12 (configuration not stated) 3.74%, CCN(CC)C(=O)Cn1c(=O)n(-c2ccc(Cl)c(Cl)c2)c(=O)c2c(C)c(C(=O)N(CC)CC)sc21 -0.329%, CC1CCN(c2nc3c(S(=O)(=O)c4ccccc4)nnn3c3ccc(Cl)cc23)CC1 1.03%, COc1ccc(NC(=O)c2ccc3c(c2)N(Cc2cccc(Cl)c2)C(=O)c2ccccc2S3=O)cc1Cl (configuration not stated) -7.21%, COc1cccc(Cc2nc3ccccc3nc2SCC(=O)NCCc2ccccc2)c1 22.1%, CCc1ccc(NC(=O)CCn2c(-c3ccc(OC)cc3)cc(C(C)=O)c2C)cc1 -5.26%

outcome, inactive:
COc1ccccc1Cc1nc2ccccc2nc1SCC(=O)NCCc1ccccc1, O=C(Nc1ccc(F)c(Cl)c1)N1CCN2CCCCC2C1 (configuration not stated), CCCCN(C(=O)c1cccc(S(=O)(=O)N2CCCCC2)c1)C1CCS(=O)(=O)C1 (configuration not stated), Cc1cc(NC(c2nnc(-c3ccccc3)o2)c2ccccc2F)ccc1Br (configuration not stated), CCN(CC)c1ccc(-c2nc(-c3ccncc3)no2)cc1[N+](=O)[O-], CCCCNC(=O)CSc1nc2cc3c(cc2c(=O)n1CCCC(=O)NCc1ccc2c(c1)OCO2)OCO3, CCOc1ccccc1C(=O)N(Cc1ccc(N(C)C)cc1)CC1CCCO1 (configuration not stated), COc1cccc(Nc2nnc(-c3cc4ccc(O)cc4oc3=O)s2)c1, COc1cccc(C2CC(=O)Nc3c2c(=O)n(C)c2nc4ccccc4n32)c1OC (configuration not stated), COc1cccc2sc(NC(=O)c3ccc4c(c3)OCCO4)nc12, CCc1nc2ccc(C(=O)N3CCN(c4ccccc4F)CC3)cc2nc1CC, Cc1ccc(Cl)cc1N1CCN(C(=O)Cn2cnc3onc(-c4ccc(F)cc4)c3c2=O)CC1, Cc1ccc2nc(-c3ccc(NC(=O)Cc4ccccc4)cc3)sc2c1, Cc1cc(Nc2ccc(Br)cc2)n2nc(-c3ccccc3C)nc2n1, COc1ccc(OC)c(-c2cc(C(=O)Nc3ccc(C)c(C)c3)no2)c1, O=C(CNC(=O)c1ccc(Cl)cc1)OCc1cc(=O)n2nc(C3CC3)sc2n1, CC(C)(C)c1ccc(CSC2=Nc3ccccc3C3=NC(CC(=O)NCc4cccs4)C(=O)N23)cc1 (configuration not stated), Cc1ccc2c(c1)cc1c(=O)n(Cc3cccc(Cl)c3)nc(C)n12, Cc1cc(C)c2c(c1)NC(=O)C2(O)c1c[nH]c2ccccc12 (configuration not stated), COC(=O)c1cc(NC(=O)CCc2c(C)nc3c(c(C)nn3C(C)(C)C)c2C)cc(C(=O)OC)c1, CCc1ccc(NC(=O)C2CCN(c3nn4cc(-c5ccc(OC)cc5)nc4s3)CC2)cc1, CCc1ccccc1NC(=O)Cn1c(=O)n(Cc2ccco2)c(=O)c2ccccc21
